Results on 42 sequences are retold here after article PMC7819943, “Rice protein-binding microarrays: a tool to detect cis-acting elements near promoter regions in rice”.

The other results are listed elsewhere or left out.

This experiment deals with T1, OsWOX13 (Oryza sativa, UniProt Q5QMM3 1-267).
T1 sequence: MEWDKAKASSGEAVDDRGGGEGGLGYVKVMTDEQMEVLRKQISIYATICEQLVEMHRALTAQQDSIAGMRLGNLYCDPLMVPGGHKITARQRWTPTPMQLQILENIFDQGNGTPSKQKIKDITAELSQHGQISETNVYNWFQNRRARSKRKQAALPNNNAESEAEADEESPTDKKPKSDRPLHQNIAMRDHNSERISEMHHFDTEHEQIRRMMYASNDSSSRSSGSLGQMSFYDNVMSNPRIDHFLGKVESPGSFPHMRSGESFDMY
As to the kind of experiment: protein-binding microarray (RPBM); PBS, 2% BSA, 51.3 ng/ul salmon testes DNA, 50 uM zinc acetate, 200 nM TF, 25 C, 1 h; high values mean tight binding. The following applies: protein: recombinant; tags: N-terminal polyhistidine and DsRed monomer fusion (pET32a); label: CyDye5-dUTP incorporated in the synthesized complementary strand; 3' TTTTT single-stranded linker to array surface; dsDNA, one strand shown. The essentials:
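Using Ni–NTA, transcription factors fused N-terminally to polyhistidine and DsRed were purified after expression in E. coli BL21-CodonPlus. These were incubated at 200 nM with a blocked, double-stranded custom Agilent array for 1 h at 25 °C in a buffer containing 50 µM zinc acetate, and the array was washed. The binding signal is per-feature fluorescence intensity (arbitrary units) on an Axon 4000B scanner.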
Turning to “ATCCATTTAATATATGACTGGAGTGCCAGGTTAATCCATACGGAGTCACCTAGTGCAG”, the binding signal is 3790 fluorescence intensity (a.u.).
To “ACATGCTCAATGATAGATCTAATTAAGCTTTTCATTGATTCGGAGTCACCTAGTGCAG” belongs 14100 fluorescence intensity (a.u.); to “AGCTAATTTATGCATGCATGGATTCCGATGGAGGAGCTGTCGGAGTCACCTAGTGCAG”, 19400 fluorescence intensity (a.u.).
In the case of “CGGATTTAAATTATATGTTTTATATTCGCCTTCACTAATACGGAGTCACCTAGTGCAG” it was 3490 fluorescence intensity (a.u.); in that of “ACGACGACGATTGATTAAGGAGTCCTTAGAGCATGTACAACGGAGTCACCTAGTGCAG”, 16300 fluorescence intensity (a.u.).
To “CCTGCACAATCACTGGCTGATGCATCTGCAATGTCACCAACGGAGTCACCTAGTGCAG” belongs 4350 fluorescence intensity (a.u.); to “CTTAATTAATCTTATGCTAATGAGATTTCTCGTTTTGCTTCGGAGTCACCTAGTGCAG”, 36200 fluorescence intensity (a.u.); to “ATTCTAATTACTAGTTTTAACATAATTGTTAATAAATGCACGGAGTCACCTAGTGCAG”, 31600 fluorescence intensity (a.u.).
With “ACCGTACTAATTAATCCTTGTTTATCTGGCCGACCGACCACGGAGTCACCTAGTGCAG”, the binding signal was 16500 fluorescence intensity (a.u.).
In the case of “AACTTTTGACATGATTTCTTATATAATTACCAGAATTTGGCGGAGTCACCTAGTGCAG” it was 25500 fluorescence intensity (a.u.).
For “TAACCTAATTGTTGTCCCAGTTCCACGGCGCCGAGCCTGTCGGAGTCACCTAGTGCAG”, the binding signal was 8140 fluorescence intensity (a.u.).
Consider “ACTAAGATTATGGTTATTCTGTTATGCTAACTTAGGCATACGGAGTCACCTAGTGCAG”, for which the binding signal is 5040 fluorescence intensity (a.u.).
In the case of “TCTTAATGCGAATAATTTCCCACATGATGTTTTCCCTCTACGGAGTCACCTAGTGCAG” it was 5060 fluorescence intensity (a.u.); in that of “CTACAATTTATCATAAACTTGATAAAATATAAACAAATTCCGGAGTCACCTAGTGCAG”, 4240 fluorescence intensity (a.u.); in that of “ATATTCAGATTAGTTATCTAATAGGACTCTACTTTATAGGCGGAGTCACCTAGTGCAG”, 4060 fluorescence intensity (a.u.).
To “GAGGAAATTATAAGAAATTATACAACGGACGTAGCTTGCCCGGAGTCACCTAGTGCAG” belongs 9840 fluorescence intensity (a.u.); to “TGGAAATTGACTCGTCACAAGCTGGACCAGACGACCGCTTCGGAGTCACCTAGTGCAG”, 30500 fluorescence intensity (a.u.); to “AGTTAGCAGAGTTAACAATGTGATTAGCTGCGTACTGGAGCGGAGTCACCTAGTGCAG”, 6290 fluorescence intensity (a.u.).
For the sequence “TATTAATTTGCACTGTCTCCTGATGTTTGGTTTAATTTGTCGGAGTCACCTAGTGCAG”, the binding signal was 25700 fluorescence intensity (a.u.).
For the sequence “TATGATGAACTGTCAGTTGATTTGATGTCCCTGATATGCCCGGAGTCACCTAGTGCAG”, the binding signal was 27800 fluorescence intensity (a.u.).
For the sequence “ATAACTAAATTTGATACCTTAAATAAACAAGTCAAACTTGCGGAGTCACCTAGTGCAG”, the binding signal was 15600 fluorescence intensity (a.u.).
Turning to “TATAGATAAAATTATTAGATTTATTTACTTTTATATAGTTCGGAGTCACCTAGTGCAG”, the binding signal was 7390 fluorescence intensity (a.u.).
In the case of “GGTATAAAATGAAATCAATTGGAGGATTGAGCTTTTAAAACGGAGTCACCTAGTGCAG” it was 4110 fluorescence intensity (a.u.); in that of “TATCTAATTTATGATTTGATTACACCATTATATTTGTTACCGGAGTCACCTAGTGCAG”, 46200 fluorescence intensity (a.u.); in that of “GGGTGATAATCAGCGGTGGTAAGATGATCGATGTCTCGACCGGAGTCACCTAGTGCAG”, 3530 fluorescence intensity (a.u.).
In the case of “CGGTATTGGATTGATCAATCATCGTCACCTCGTTTTGCTTCGGAGTCACCTAGTGCAG” it was 45400 fluorescence intensity (a.u.); in that of “CAGATAATAATTAAGCCTAGTAACCCCATTTGCCGCACCACGGAGTCACCTAGTGCAG”, 5720 fluorescence intensity (a.u.); in that of “AAATATATCATCAATTAATATTTGGCACACCTCTCTAACACGGAGTCACCTAGTGCAG”, 8310 fluorescence intensity (a.u.).
In the case of “TATATATATATATATATATATATATATATATAAGGTTTGACGGAGTCACCTAGTGCAG” it was 8570 fluorescence intensity (a.u.); in that of “AATCGAATTAATTACTGCTCCGGTCAAACTTAAGCACGCACGGAGTCACCTAGTGCAG”, 15900 fluorescence intensity (a.u.); in that of “CTCAAGCTTAATTAAGCTCGTAATCTCATATAACCTCTTTCGGAGTCACCTAGTGCAG”, 57900 fluorescence intensity (a.u.).
With “ACTACCAATGATTTACAGATATGGGAGTAGGGTCGACCCCCGGAGTCACCTAGTGCAG”, the binding signal was 18200 fluorescence intensity (a.u.).
To “TAGAGCATGTCAATTTGGTTAACGGCATAACTGCTAAGCTCGGAGTCACCTAGTGCAG” belongs 6940 fluorescence intensity (a.u.).
To “GATAGATAAGATTGATAACCACGATAACCAAATGGTTATTCGGAGTCACCTAGTGCAG” belongs 21900 fluorescence intensity (a.u.).
In the case of “GGCTCAATCAAACAGCGGGAGTCTAGTTCGTCAATCTCCTCGGAGTCACCTAGTGCAG” it was 8680 fluorescence intensity (a.u.); in that of “ATAGATTGATCACAGAGGGAGCGCATACTTAACCAAAGTTCGGAGTCACCTAGTGCAG”, 20000 fluorescence intensity (a.u.); in that of “AAAATCAATCAAAGTGTGACTGTGTGAGGCATGGCTGGAACGGAGTCACCTAGTGCAG”, 22000 fluorescence intensity (a.u.).
In the case of “TAATAATACATGATAATTAATTAGCTACGTCCTTGTCAAACGGAGTCACCTAGTGCAG”, the binding signal is 23200 fluorescence intensity (a.u.).
Regarding “ATATTGATGTTAATAAATCTAGATAGATATATATATATGTCGGAGTCACCTAGTGCAG”, the binding signal was 4790 fluorescence intensity (a.u.).
In the case of “GTAAATTGTAAACCCTTTTATTTGAACAAGCCATAACCAACGGAGTCACCTAGTGCAG” it was 5420 fluorescence intensity (a.u.); in that of “GCACCTCTATTTAACACAAATTTTGACAATTTAACCCTTTCGGAGTCACCTAGTGCAG”, 5630 fluorescence intensity (a.u.); in that of “ATATTTAATTATTATTTTAATAAAACTAATTTGGTAATGTCGGAGTCACCTAGTGCAG”, 25700 fluorescence intensity (a.u.).
